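The compound was tested at five concentrations on cells cultured in 96-well plates, with a 48-hour exposure period. The concentration for 50% growth inhibition is given as GI50. TGI is the concentration that stops growth completely.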 Bounds are passed on as bounds.

Among the data in PubChem BioAssay (NCI) are GI50 and TGI values, retold here.

This assay relates to NCI-H322M lung. Kind of assay: NCI anticancer screen, dose series, 48 h.

For the compound `COc1ccc2[nH]c(O)c(N=Nc3nc(-c4ccc(Cl)cc4)cs3)c2c1`, the GI50 was 4.74 µM and the TGI is 41.8 µM.

For `Cc1ccc(CNC(=O)Cc2ccc3c(c2)CN(C2CCC(=O)NC2=O)C3=O)cc1` (stereo unspecified), the GI50 was under 0.01 µM and the TGI came to 0.59 µM.

With `Cn1cc(-c2cc3nc(-c4cn(C)c5ncc(Br)cc45)cc(N)n3n2)c2cc(F)ccc21`, the GI50 is 5.75 µM and the TGI stood at 23.1 µM.
